Data: patent publication US20260176310A1 (NAVIGO PROTEINS, published 2026)

T1: hFAP-Fc (human, UniProt Q12884 26-760)
T1 construct: extracellular domain; Made in house in Expi293-F cells; also called hFAP-Fc-His; human FAP; not shown: IgG1-Fc
T1 sequence (looked up): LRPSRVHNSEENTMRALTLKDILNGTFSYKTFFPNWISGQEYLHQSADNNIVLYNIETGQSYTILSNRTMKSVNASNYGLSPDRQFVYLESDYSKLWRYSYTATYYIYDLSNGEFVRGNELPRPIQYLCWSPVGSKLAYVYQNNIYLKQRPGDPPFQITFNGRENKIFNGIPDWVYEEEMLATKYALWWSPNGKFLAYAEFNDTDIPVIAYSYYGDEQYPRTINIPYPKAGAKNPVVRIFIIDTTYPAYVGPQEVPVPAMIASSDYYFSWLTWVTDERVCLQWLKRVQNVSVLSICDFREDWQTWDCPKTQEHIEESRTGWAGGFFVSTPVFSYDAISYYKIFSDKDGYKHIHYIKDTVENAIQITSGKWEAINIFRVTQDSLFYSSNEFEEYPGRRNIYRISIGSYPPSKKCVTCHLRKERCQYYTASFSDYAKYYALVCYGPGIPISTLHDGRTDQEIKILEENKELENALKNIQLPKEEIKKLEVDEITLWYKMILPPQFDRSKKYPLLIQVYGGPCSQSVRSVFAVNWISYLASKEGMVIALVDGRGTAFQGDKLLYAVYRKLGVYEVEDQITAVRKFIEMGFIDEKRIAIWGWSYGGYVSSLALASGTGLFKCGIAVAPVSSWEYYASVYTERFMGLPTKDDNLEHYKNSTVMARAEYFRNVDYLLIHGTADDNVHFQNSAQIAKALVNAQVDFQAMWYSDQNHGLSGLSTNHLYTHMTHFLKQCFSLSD

T2: mFAP-Fc (mouse, UniProt P97321 26-761)
T2 construct: extracellular domain; Made in house in ExpiCHO cells; also called mFAP-Fc-His; mouse FAP; not shown: IgG1-Fc
T2 sequence (looked up): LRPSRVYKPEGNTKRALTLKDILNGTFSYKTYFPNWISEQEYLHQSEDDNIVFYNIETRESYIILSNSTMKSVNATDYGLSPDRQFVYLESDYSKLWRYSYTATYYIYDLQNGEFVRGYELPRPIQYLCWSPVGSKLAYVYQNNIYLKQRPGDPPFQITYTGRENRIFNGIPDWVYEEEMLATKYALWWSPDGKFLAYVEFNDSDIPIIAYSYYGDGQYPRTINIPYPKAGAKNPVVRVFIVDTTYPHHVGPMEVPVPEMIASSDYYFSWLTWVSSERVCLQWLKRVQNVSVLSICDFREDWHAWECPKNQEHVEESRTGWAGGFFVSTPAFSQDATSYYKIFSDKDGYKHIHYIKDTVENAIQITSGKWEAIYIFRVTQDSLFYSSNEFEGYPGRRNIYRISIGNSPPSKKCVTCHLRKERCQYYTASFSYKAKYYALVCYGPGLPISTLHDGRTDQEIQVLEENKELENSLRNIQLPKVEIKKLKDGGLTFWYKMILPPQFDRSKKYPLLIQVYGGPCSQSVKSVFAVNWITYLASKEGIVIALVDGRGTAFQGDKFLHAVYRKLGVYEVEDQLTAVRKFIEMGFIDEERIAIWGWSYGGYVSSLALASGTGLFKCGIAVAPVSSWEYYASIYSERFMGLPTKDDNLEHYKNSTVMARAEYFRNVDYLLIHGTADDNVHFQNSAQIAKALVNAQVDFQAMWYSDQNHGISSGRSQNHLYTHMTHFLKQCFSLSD

B1: Affilin®-217990 (designed binder)
chain: MQIFVKTLTPEWHIIGKTITLEVEPSDTIENVKAKIQDKEGIPPDQQNLAWAGKQLEDGRTLSDYNIQGGSMLMLKLHLRAA
notes: Ubiquitin mutein
B2: Affilin®-220164 (designed binder)
chain: MQIFVWTDDWKRITLEVEPSDTIENVKAKIQDKEGIPPDQQVLAWRGKQLEDGRTLSDYNIMVWPNLWLRLRAA
notes: Ubiquitin mutein
B3: Affilin®-217863 (designed binder)
chain: MQIFVWTEMHKRITLEVEPSDTIENVKAKIQDKEGIPPDQQHLTWKGKQLEDGRTLSDYNISEWPNLFLRLNLRAA
notes: Ubiquitin mutein
B4: Affilin®-220257 (designed binder)
chain: MQIFVWTITGKPITLEVEPSDTIENVKAKIQDKEGIPPDQQRLIWAGKQLEDGRTLSDYNIRSWPNLHLVLRLRAGMQIVVHTATGKTITLEVEPSDTIGHVKAKIQDTEGIPPDQQRLIWAGKQLEDGRTLSDYNIEDFPPLHLVLRLRAA
notes: Ubiquitin mutein

These binders were tested against T1, hFAP-Fc (assay: SPR (Sierra SPR-32), hFAP-Fc captured on protein A, 1:1 Langmuir).
Experimental: (§1) Recombinant protein A was immobilized on a High Capacity Amine sensor chip (Bruker) after NHS/EDC activation resulting in approx. 2000 RU with a Sierra SPR-32 system (Bruker). The chip was equilibrated with SPR running buffer (PBS 0.05%, Tween pH 7.3). Injection of ethanolamine after ligand immobilization was used to block unreacted NHS groups. The Fc-tagged FAP and CD26 target molecules were injected with 60 nM followed by the injection of FAP binding proteins. Upon binding, target analyte was accumulated on the surface increasing the refractive index. This change in the refractive index was measured in real time and plotted as response or resonance units versus time. The FAP binding proteins were applied to the chip in serial dilutions with a flow rate of 30 μl/min. The association was performed for 120 seconds and the dissociation for 180 seconds. After each run, the chip surface was regenerated with 30 μl regeneration buffer (10 mM glycine pH 2.0) and equilibrated with running buffer. Binding studies were carried out by the use of the Sierra SPR-32 system (Bruker); data evaluation was operated via the Sierra Analyser software, provided by the manufacturer, by the use of the Langmuir 1:1 model (RI=0). Evaluated dissociation constants (KD) were standardized against the immobilized protein and indicated.

Compared with B1, B2 is 3.7-fold lower in Kd: 14 nM for the first, 3.8 nM for the second.

Going from B3 to B4, the Kd rises from 1.9 nM to 3.6 nM (1.9-fold).

The binders below were run against T2, mFAP-Fc (assay: SPR, Fc-tagged target captured on protein A).
Experimental: as §1

First: B1
Second: B2
The Kd of the first is 29-fold higher: 90 nM for the first, 3.1 nM for the second. The second binds more tightly here.

What follows are binders tested against T1, hFAP-Fc (assay: ELISA on coated hFAP-Fc (2.5 µg/ml); Affilin dilution series in 100% human serum, 0 h preincubation; detection with biotinylated anti-ubiquitin antibody and Streptavidin-HRP).
Experimental: High binding plates (Greiner, 781061) were immobilized with 2.5 μg/ml hFAP-Fc over night at 4° C. Dilution series of 3 µM to 0.07 PM of Affilin® proteins were incubated in 100% human serum or 100% mouse serum for 24 h at 37° C.
ELISA-plates were washed three times with PBST (PBS+ 0.1% Tween) and blocked with 3% BSA/0.5% Tween/PBS 1 h at rt. After preincubation for 0 h or 24 h in the presence of serum the dilution series were incubated on ELISA-plates for 30 min at room temperature (rt). Wells were washed with PBST and incubated with biotinylated anti-ubiquitin-antibody (1:300) for 30 min at rt. The binding was visualized with Streptavidin-HRP (1:5.000). […] ELISA analysis confirmed the high stability of FAP binding proteins in serum.

Compared with B1, B2 is 2.1-fold lower in Kd: 1.17 nM for the first, 0.55 nM for the second.

In the case of B4, the Kd is reported as 0.32 nM.
